Data: PubChem BioAssay AID504832 (National Center for Advancing Translational Sciences (NCATS), 2011)
In all, about 310,000 compounds went through this assay and about 18,000 (5.8%) were called active. Inconclusive results, whose numbers are uncertain, are shown with a selection of clear calls. Calls follow the shape of the dose curve; as a rule, active = well fitted inhibition curve with a large enough effect; inconclusive = small, poorly fitted or top-dose-only effect, or another doubt; inactive = no such curve, though single readings can be large or run the other way. Potencies of inconclusive entries are left out as doubtful fits.

Test: Primary qHTS for delayed death inhibitors of the malarial parasite plastid, 48 hour incubation
Conditions: P. falciparum luciferase growth in erythrocytes; series mostly up to 28.7 µM; activity change, negative = inhibition: at the top concentration
Summary of the method: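 Read-out is firefly luciferase luminescence from an integrated reporter in P. falciparum, so falling signal marks reduced parasite growth. Infected erythrocytes were at 2% hematocrit and 0.1% parasitemia (final) in Albumax-supplemented RPMI 1640.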
% is scaled to controls: 0 for no effect and ±100 for the full control effect; potency is read from the fitted curve at half-maximal effect; tags tell the direction and shape of the fitted curve.

| Structure (SMILES) | activity change, negative = inhibition | Potency |
| --- | --- | --- |
| CCCCCCCCCCCCCC(=O)OCC(COP(=O)([O-])OCC[N+](C)(C)C)OC(=O)CCCCCCCCCCCCC (centres undefined) | inactive: 8.93% |  |
| Cc1cc(C(=O)CN2C(=O)NC3(CCCCCC3)C2=O)c(C)n1C |  | inconclusive [inhibitor, partial curve, poor fit] |
| Cc1ccc(NC(=O)CCc2c(C)nn(-c3ccc(N4CCCCC4)nn3)c2C)cc1 | inactive: 43.4% |  |
| CC1CCCCC1NC(=O)c1ccc2c(c1)[nH]c(=O)n2C1CCCC1 (centres undefined) |  | inconclusive [inhibitor, single point] |
| Cc1ccc(S(=O)(=O)ON2C(=O)c3ccccc3C2=O)c(C)c1 | inactive: 3.46% |  |
| CC(C)(C)c1ccc(COn2ccnc2)cc1 |  | inconclusive [inhibitor, single point] |
| CCN(CC(=O)NCc1cccs1)C(=O)c1ccccc1F |  | inconclusive [inhibitor, single point] |
| O=C(N/C(=C\c1ccc(Br)cc1)C(=O)N1CCOCC1)c1ccccc1Cl |  | inconclusive [inhibitor, partial curve, poor fit] |
| CCCn1c(-c2cc(OC)c(OC)c(OC)c2)nc2nc3ccccc3nc21 |  | inconclusive [inhibitor, partial curve, poor fit] |
| Cc1ccc(NC(=S)NC2CCN(Cc3ccccc3)CC2)cc1 |  | inconclusive [inhibitor, partial curve] |
| Cc1nc2sc3c(c2c(=O)o1)CCCC3 | inactive: 22.2% |  |
| OCC[C@@H]1C[C@H](O)[C@@H](O)[C@@]2(OCCc3ccccc32)O1 | inactive: 3.67% |  |
| CCc1cc(=O)[nH]c(SCC(=O)N2CCC(Cc3ccccc3)CC2)n1 | inactive: -4.7% |  |
| CCC1CCCCN1CCNS(=O)(=O)c1ccc2c(c1)CCN2C(C)=O (centres undefined) |  | inconclusive [inhibitor, partial curve, poor fit] |
| C=CCS(=O)(=O)c1nc2ccccc2s1 |  | inconclusive [inhibitor, single point] |
| O=C(NCc1cccc(Cl)c1)C1CCN(S(=O)(=O)c2ccc(F)cc2)CC1 |  | inconclusive [inhibitor, partial curve] |
| CC(=O)Nc1ccc(N2S(=O)(=O)c3ccccc3S2(=O)=O)cc1 | inactive: -16% |  |
| CCCCOC(=O)c1ccc(NC(=O)C2CCCO2)cc1 (centres undefined) | inactive: 62.8% |  |
| O=C(NCCCN1CCOCC1)C(=O)NCc1ccccc1Cl | inactive: 9.69% |  |
| CS(=O)(=O)c1ccccc1-c1nnc(NC(=O)c2ccco2)o1 | inactive: -2.16% |  |
| CCOC(=O)C1(Cc2ccccc2)CCCN(Cc2ccncc2)C1 (centres undefined) |  | active: 9.28 µM |
| COc1ccccc1CN1C[C@@H]2C[C@@H](c3cccc(O)c3)N3CCC[C@@]23C1=O |  | inconclusive [inhibitor, partial curve] |
| Cc1ccc2cccnc2c1N | inactive: 22.8% |  |

| Structure (SMILES) | activity change, negative = inhibition | Potency |
| --- | --- | --- |
| NS(=O)(=O)c1ccc(N/N=C/c2ccc(O)cc2O)c([N+](=O)[O-])c1 |  | inconclusive [inhibitor, single point] |
| CCOC(=O)c1cc(NCc2cccs2)ccc1N1CCOCC1 | inactive: -10.4% |  |
| Cc1nc2ccc(S(=O)(=O)N(C)CC(=O)Nc3ccccc3F)cc2s1 |  | inconclusive [inhibitor, single point] |
| CCOC(=O)c1cnc2c(C(F)(F)F)cccc2c1N1CCOCC1 |  | inconclusive [inhibitor, partial curve] |
| NC(=O)N1c2ccccc2C=Cc2ccccc21 |  | inconclusive [inhibitor, full curve, poor fit] |
| Cc1cccc(C(=O)N(CC(=O)Nc2sc(C)c(C)c2C(N)=O)C2CCCC2)c1 |  | inconclusive [inhibitor, partial curve, poor fit] |
| C=CCn1c(SC(C)C(=O)NCc2ccc3c(c2)OCO3)nnc1C1CCCCC1 (centres undefined) |  | inconclusive [inhibitor, full curve, poor fit] |
| Cc1cc(C)n(-c2nnc(NCc3ccc(Cl)cc3)nn2)n1 |  | inconclusive [inhibitor, partial curve] |
| CCCCN(C(=O)c1ccc(S(=O)(=O)N(C)C)cc1)c1ccccc1 | inactive: 13.4% |  |
| Cc1ccc(C)c(CS(=O)(=O)c2cn(CC(=O)N3CCCCC3)c3ccccc23)c1 |  | inconclusive [inhibitor, partial curve, poor fit] |
| COc1ccc(NC(=O)c2oc3ccccc3c2NC(=O)c2ccco2)c(OC)c1 |  | inconclusive [inhibitor, partial curve] |
| COC(=O)[C@]1(CC(C)C)N[C@H](c2ccc(SC3CCCCC3)c(OC)c2)[C@@H]2C(=O)N(C)C(=O)[C@@H]21 |  | inconclusive [inhibitor, single point] |
| COC(=O)C1=C(C)N(CCc2cc(OC)c(OC)c(OC)c2)C(=O)N[C@H]1c1ccc(Br)cc1 |  | active: 13.1 µM |
| CCOc1cc(/C=C(\C#N)C(=O)NCc2cccnc2)ccc1O | inactive: -11.5% |  |
| Cc1ccc(Cl)c(NC(=S)N(CCCN2CCOCC2)Cc2ccco2)c1 |  | inconclusive [inhibitor, single point] |
| CCc1ccccc1N(C)S(=O)(=O)c1cc(-c2cc(C)no2)ccc1OC |  | inconclusive [inhibitor, partial curve, poor fit] |
| COc1ccc(-c2cnc3c(c2)CCC3(C#N)C#N)cc1 | inactive: 12.2% |  |
| COC(=O)c1sccc1NC(=O)c1cccnc1 | inactive: 18.5% |  |
| CCCNC(=O)c1ccc(-c2nn(C)c(=O)c3ccccc23)cc1 |  | inconclusive [inhibitor, single point] |
| Cn1cccc1CC(=O)NNC(=S)NC(=O)c1ccccc1Br |  | inconclusive [inhibitor, single point] |
| CCCCN(C(=O)C1CCC1)c1c(N)n(CCC)c(=O)[nH]c1=O | inactive: 1.04% |  |
| CCc1ccccc1N(C(=O)c1cccs1)C1C=CS(=O)(=O)C1 (centres undefined) |  | inconclusive [inhibitor, partial curve, poor fit] |
| N/C(Cc1cccc2ccccc12)=N\OC(=O)Cc1cccs1 |  | inconclusive [inhibitor, single point] |

| Structure (SMILES) | activity change, negative = inhibition | Potency |
| --- | --- | --- |
| CCN(CC)CCNCc1cc(Cl)c(OCC(=O)Nc2ccccc2)c(OC)c1 |  | inconclusive [inhibitor, partial curve] |
| Cc1ccc(OCC(=O)OCC(=O)NC2CC2)cc1C | inactive: 30% |  |
| Cc1ccc(Cn2c(=N)c(C(=O)NCC3CCCO3)cc3c(=O)n4ccccc4nc32)cc1 (centres undefined) |  | inconclusive [inhibitor, single point] |
| CCCN(CC(=O)Nc1ccccc1C)C(=O)c1ccc(N2CCCCC2)c([N+](=O)[O-])c1 |  | inconclusive [inhibitor, single point] |
| Cc1ccc2nc(-c3ccc(NS(C)(=O)=O)cc3)cc(-c3ccccc3)c2c1 |  | inconclusive [inhibitor, partial curve, poor fit] |
| CCN(Cc1ccncc1)C(=O)c1ccc(Br)o1 | inactive: 9.13% |  |
| O=C(Nc1cc(C(F)(F)F)ccc1Cl)c1cc(C2CC2)on1 |  | inconclusive [inhibitor, single point] |
| O=C1Nc2ccccc2/C1=N/c1sc2c(c1C(=O)NCCc1ccccc1)CCCC2 |  | inconclusive [inhibitor, partial curve] |
| CSc1nc2c(c(=O)n1-c1ccc(C)cc1)SCC2 |  | active: 9.28 µM |
| COc1ccc(N2CCOCC2)c(NC(=O)c2cccc3ccccc23)c1 |  | active: 3.7 µM |
| COc1cccc(CN(C)C(=O)C2CC(=O)N(c3ccc4c(c3)OCCO4)C2)c1 (centres undefined) |  | inconclusive [inhibitor, single point] |
| CCOC(=O)N/N=C/c1c(C)nn(-c2ccccc2Cl)c1Cl |  | inconclusive [inhibitor, partial curve] |
| CCOc1cc(NC(=O)c2ccco2)c(OCC)cc1NC(=O)Cc1ccc(OC)c(OC)c1 |  | inconclusive [inhibitor, full curve] |
| COc1cc(C2NCCc3c2[nH]c2ccccc32)ccc1OC(C)C (centres undefined) |  | inconclusive [inhibitor, single point] |
| Nc1cc(=O)[nH]c(SCC(=O)Nc2ccc(S(=O)(=O)N3CCOCC3)cc2)n1 |  | inconclusive [inhibitor, single point] |
| COc1ccccc1C(=O)N/C(=C\c1cn(S(=O)(=O)N(C)C)c2ccccc12)C(=O)N1CCCC1 |  | inconclusive [inhibitor, partial curve, poor fit] |
| O=C(CN(Cc1ccco1)C(=O)c1cc(=O)[nH]c2ccccc12)Nc1ccccc1C(F)(F)F |  | inconclusive [inhibitor, partial curve, poor fit] |
| CCCc1nc2ccc(NC(=O)c3cccs3)cc2c(=O)n1Cc1ccccc1Cl |  | active: 1.85 µM |
| COc1cc(/C=C/C(=O)N2C(=O)c3cccc(N)c3C2=O)cc(OC)c1OC |  | inconclusive [inhibitor, full curve, poor fit] |
| O=C(O)C1=C[C@@H](c2ccccc2)C[C@@H](OCc2ccc(CO)cc2)O1 |  | inconclusive [inhibitor, full curve, poor fit] |
| COc1ccc(CNC(=O)CCS(=O)(=O)c2cccc3nonc23)cc1 | inactive: 14.8% |  |
| CC(=O)N/C(=C\c1ccccc1)C(=O)OCC(=O)N(CC(C)C)c1c(N)n(Cc2ccccc2)c(=O)[nH]c1=O | inactive: -30.4% |  |
| CCc1cccc(NC(=O)C2CCN(S(=O)(=O)c3ccc4c(c3)CC(C)N4C(C)=O)CC2)c1 (centres undefined) |  | inconclusive [inhibitor, single point] |
